Test results from article PMC4336329 (PLoS ONE, 2015).
Out of some 310,000 compounds screened, about 14,000 (4.5%) showed an effect of 50% or more. The effect is printed as a negative number. The list shows a part of the results.
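Further: peak tail current of the secondary pulse compared with the same well before compound.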

What follows are compounds tested against human ether-à-go-go-related gene (hERG) potassium channel (human, UniProt Q12809) (assay: primary screen, population patch clamp on CHO cells stably expressing hERG).
Chain of human ether-à-go-go-related gene (hERG) potassium channel (Q12809 whole entry, looked up): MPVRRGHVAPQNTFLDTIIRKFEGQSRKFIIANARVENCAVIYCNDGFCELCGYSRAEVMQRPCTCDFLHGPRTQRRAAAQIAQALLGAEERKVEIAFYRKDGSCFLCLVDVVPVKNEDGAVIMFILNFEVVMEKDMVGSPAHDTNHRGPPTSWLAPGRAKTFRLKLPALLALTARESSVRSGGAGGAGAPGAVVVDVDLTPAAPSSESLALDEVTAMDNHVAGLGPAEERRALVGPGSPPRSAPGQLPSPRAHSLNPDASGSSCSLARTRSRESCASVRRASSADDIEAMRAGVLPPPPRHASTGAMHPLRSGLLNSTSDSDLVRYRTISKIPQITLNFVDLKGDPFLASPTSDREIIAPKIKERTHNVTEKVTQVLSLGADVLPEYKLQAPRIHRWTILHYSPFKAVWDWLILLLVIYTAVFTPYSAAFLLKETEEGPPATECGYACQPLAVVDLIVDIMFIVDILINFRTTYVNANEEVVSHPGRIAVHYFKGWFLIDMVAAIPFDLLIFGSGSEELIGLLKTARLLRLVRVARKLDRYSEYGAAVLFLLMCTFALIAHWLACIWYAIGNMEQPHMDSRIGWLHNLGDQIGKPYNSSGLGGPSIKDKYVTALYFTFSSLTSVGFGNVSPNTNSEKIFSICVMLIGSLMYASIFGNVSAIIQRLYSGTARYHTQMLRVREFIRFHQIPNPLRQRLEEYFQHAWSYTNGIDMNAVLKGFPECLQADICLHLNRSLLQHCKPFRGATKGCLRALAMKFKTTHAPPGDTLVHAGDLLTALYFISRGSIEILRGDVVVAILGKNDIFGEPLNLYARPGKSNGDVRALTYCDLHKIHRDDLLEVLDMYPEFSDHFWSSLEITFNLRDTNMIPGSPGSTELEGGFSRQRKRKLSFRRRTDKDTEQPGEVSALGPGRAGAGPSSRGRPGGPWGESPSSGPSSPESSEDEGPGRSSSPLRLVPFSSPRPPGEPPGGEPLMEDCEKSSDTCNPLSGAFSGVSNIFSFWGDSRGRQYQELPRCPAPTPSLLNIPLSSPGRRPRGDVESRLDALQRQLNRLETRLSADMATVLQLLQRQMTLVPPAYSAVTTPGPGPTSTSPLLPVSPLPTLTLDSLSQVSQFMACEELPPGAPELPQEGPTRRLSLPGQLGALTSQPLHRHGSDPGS
With COc1ccc(NC(=O)c2ccccc2F)cc1Cl the “hERG current change (%, negative = inhibition) at 10uM” value was 7.22%.
CSCCC(NS(=O)(=O)c1ccccc1F)C(=O)N1CCCCCCC1 (centres unmarked) was tested, and the “hERG current change (%, negative = inhibition) at 10uM” value was -8.16%.
CC(C)c1ccc(S(=O)(=O)N2CCN(C(=O)C3CCN(C(=O)c4ccc(F)cc4)CC3)CC2)cc1 was tested, and the “hERG current change (%, negative = inhibition) at 10uM” value was -53.7%.
CCOC(=O)c1c(O)c2cccc3c2n(c1=O)CC3 was tested, and the “hERG current change (%, negative = inhibition) at 10uM” value was 8.82%.
With CO.COc1ccc(C(=O)Nc2ccc(/C(C)=N/NC(=O)c3ccccc3O)cc2)cc1OC the “hERG current change (%, negative = inhibition) at 10uM” value was 6.18%.
With O=C(Nc1ccc(S(=O)(=O)Nc2nccs2)cc1)c1ccc(F)c(S(=O)(=O)N2CCOCC2)c1 the “hERG current change (%, negative = inhibition) at 10uM” value was -33.1%.
In the case of Cc1csc(NC(=S)NC(=O)c2ccccc2)n1, the “hERG current change (%, negative = inhibition) at 10uM” value is reported as 11%.
Cc1nc(NC(=O)COC(=O)/C=C/c2ccco2)c(Cl)cc1Cl was tested, and the “hERG current change (%, negative = inhibition) at 10uM” value was 8.52%.
N/C(=N\c1nc2ccccc2o1)NC(=O)c1cccc(Cl)c1 was tested, and the “hERG current change (%, negative = inhibition) at 10uM” value was 8.97%.
With CCC1Sc2ccc(S(=O)(=O)Nc3cc(OC)cc(OC)c3)cc2NC1=O (centres unmarked) the “hERG current change (%, negative = inhibition) at 10uM” value was 3.4%.
COC(=O)c1scc(S(=O)(=O)C(C)(C)C)c1N was tested, and the “hERG current change (%, negative = inhibition) at 10uM” value was 5.79%.
With COc1ccc(-c2csc(COC(=O)C(C)(C)C)n2)cc1 the “hERG current change (%, negative = inhibition) at 10uM” value was 18%.
O=C(N=C1N=C2C=CC=CN2Cc2ccccc21)c1ccc(S(=O)(=O)N2CCCC2)cc1 was tested, and the “hERG current change (%, negative = inhibition) at 10uM” value was 13.8%.
O=C(COC(=O)CNC(=O)c1ccccc1F)Nc1ncc(Cl)cc1Cl was tested, and the “hERG current change (%, negative = inhibition) at 10uM” value was -3.8%.
For CC1(C)C=Cc2c(ccc3c2OC[C@H](c2ccc(O)cc2O)C3)O1, the “hERG current change (%, negative = inhibition) at 10uM” value was 17.7%.
For Cc1ccc(C(=O)CSc2nc(C(C)C)nc3ccccc23)cc1, the “hERG current change (%, negative = inhibition) at 10uM” value was 20.6%.
In the case of CC(C)(C)NS(=O)(=O)c1ccc(CCC(=O)N2CCCCC2)cc1, the “hERG current change (%, negative = inhibition) at 10uM” value is reported as -10.2%.
For COc1cc(OC)c(OC)cc1CNC1CCCCCC1, the “hERG current change (%, negative = inhibition) at 10uM” value was -5.57%.
CCn1c(SCC(=O)Nc2ccccc2OC)nnc1-c1cnccn1 was tested, and the “hERG current change (%, negative = inhibition) at 10uM” value was -25.4%.
For CS(=O)(=O)CCC(C(=O)OCc1ccc(Br)cc1)N1C(=O)c2ccccc2C1=O (centres unmarked), the “hERG current change (%, negative = inhibition) at 10uM” value was -0.0845%.
In the case of COc1nc2ccccc2c(=O)n1-c1ccc(C)cc1, the “hERG current change (%, negative = inhibition) at 10uM” value is reported as -2.06%.
With CCCCn1c(N)c(N(CC(C)C)C(=O)CC(NC(=O)c2ccccc2)c2ccccc2)c(=O)[nH]c1=O (centres unmarked) the “hERG current change (%, negative = inhibition) at 10uM” value was 1.68%.
In the case of Cc1ccccc1N1CCN(C2CCCN(C(=O)CCc3c(C)noc3C)C2)CC1 (centres unmarked), the “hERG current change (%, negative = inhibition) at 10uM” value is reported as -46.3%.
For O=C(NCC(=O)N(c1ccccc1)C(C(=O)NC1CCCC1)c1ccncc1)c1cccs1 (centres unmarked), the “hERG current change (%, negative = inhibition) at 10uM” value was 12.1%.
For CC1(C)O[C@@H]2[C@H](O1)[C@@H](COS(=O)(=O)[O-])O[C@H]2n1cnc2c(N)ncnc21.[K+], the “hERG current change (%, negative = inhibition) at 10uM” value was 15.7%.
With CCC/C(=C1/c2ccccc2C(=O)N1c1ccccc1)c1ccc2c(c1)OCCO2 the “hERG current change (%, negative = inhibition) at 10uM” value was 20.3%.
COc1cccc(/C=N/NC(=O)c2ccc(N3CCCC3=O)cc2)c1 was tested, and the “hERG current change (%, negative = inhibition) at 10uM” value was -19.8%.
CC(SC1=NCCN1S(=O)(=O)c1ccc(F)cc1)c1ccccc1 (centres unmarked) was tested, and the “hERG current change (%, negative = inhibition) at 10uM” value was 11.9%.
In the case of CCOc1cccc(NC(=O)C2CC(=O)N(C)C(=Nc3ccccc3)S2)c1 (centres unmarked), the “hERG current change (%, negative = inhibition) at 10uM” value is reported as 1.54%.
In the case of COc1cccc(N2CC34C=CC(O3)C(C(=O)O)C4C2=O)c1 (centres unmarked), the “hERG current change (%, negative = inhibition) at 10uM” value is reported as 17.8%.
In the case of COc1ccc(N2CCN(CC(=O)N3N=CCC3c3ccccc3)CC2)cc1 (centres unmarked), the “hERG current change (%, negative = inhibition) at 10uM” value is reported as -2.49%.
CN(C(=O)c1c(Cl)cnn1C)C12CC3CC(CC(C3)C1)C2 was tested, and the “hERG current change (%, negative = inhibition) at 10uM” value was -7.48%.
For Cc1cc(OC(=O)c2c(C)cc(O)cc2O)cc(O)c1C(=O)O, the “hERG current change (%, negative = inhibition) at 10uM” value was 20.9%.
With COc1cccc(/C=C/C(=O)N2CCN(S(=O)(=O)c3ccccc3)CC2)c1OC the “hERG current change (%, negative = inhibition) at 10uM” value was -7.35%.
For O=C(N/N=C1/CCS(=O)(=O)c2ccc(F)cc21)c1cccnc1, the “hERG current change (%, negative = inhibition) at 10uM” value was 32.6%.
For CN1CCN(c2cc3c(c4c2[nH]c2ccccc24)C(=O)CC(C)(C)C3)CC1.Cl, the “hERG current change (%, negative = inhibition) at 10uM” value was -16.8%.
For COc1ccc(N2CCN(C(=O)c3cn(C4CCCC4)c(=O)c4c3c3ccccc3n4C)CC2)cc1, the “hERG current change (%, negative = inhibition) at 10uM” value was -6.9%.
For O=C(c1cccs1)N1CCN(S(=O)(=O)N2CCOCC2)CC1, the “hERG current change (%, negative = inhibition) at 10uM” value was -18.9%.
With c1ccc2nc(-c3nc4ccccc4[nH]3)ccc2c1 the “hERG current change (%, negative = inhibition) at 10uM” value was 11.1%.
For CCOC(=O)c1c(NC(=O)CN(CC)CC)sc2c1CCN(C(=O)OCC)C2, the “hERG current change (%, negative = inhibition) at 10uM” value was -22.2%.
For CC(Cc1ccccc1)Nc1ncnc2c1ncn2C1OC(CO)C(O)C1O (centres unmarked), the “hERG current change (%, negative = inhibition) at 10uM” value was 0.256%.
In the case of COc1cccc(-c2nc(-c3ccccc3)nc(N3CCN(C)CC3)c2C#N)c1, the “hERG current change (%, negative = inhibition) at 10uM” value is reported as 10.7%.
For COc1ccc2c(CC(=O)Nc3nnc(C4CC4)s3)coc2c1, the “hERG current change (%, negative = inhibition) at 10uM” value was -10%.
O=C(NNC(=O)C1CC1)c1ccccc1[N+](=O)[O-] was tested, and the “hERG current change (%, negative = inhibition) at 10uM” value was 7.73%.
With CSCCC(NC(=O)c1ccccc1)C(=O)NCc1ccc(S(N)(=O)=O)cc1 (centres unmarked) the “hERG current change (%, negative = inhibition) at 10uM” value was 21.2%.
With Cc1cc(-c2nnc(CCC(=O)N(C)C(C)c3cccs3)o2)no1 (centres unmarked) the “hERG current change (%, negative = inhibition) at 10uM” value was -4.74%.
With CSc1nnc(CNC(=O)c2ccccc2)n1-c1ccc(F)cc1 the “hERG current change (%, negative = inhibition) at 10uM” value was 16.7%.
O=c1c2ccccc2nc2n1CCS2(=O)=O was tested, and the “hERG current change (%, negative = inhibition) at 10uM” value was 14.2%.
For Cc1nn(C)c(C(=O)NC(=S)Nc2ccccc2Br)c1Cl, the “hERG current change (%, negative = inhibition) at 10uM” value was 17.1%.
For CC1(c2ccccc2Cl)NC(=O)N(CC(=O)Nc2ccccc2OC(F)F)C1=O (centres unmarked), the “hERG current change (%, negative = inhibition) at 10uM” value was -9.08%.
In the case of C=CCNc1nc(-c2ccc([N+](=O)[O-])cc2)cs1, the “hERG current change (%, negative = inhibition) at 10uM” value is reported as -12%.
With Cc1cccn2c(=O)nc(SCC(=O)N3CCOCC3)nc12 the “hERG current change (%, negative = inhibition) at 10uM” value was 9.72%.
For O=C(NCCOc1ccc(Cl)cc1)C(=O)NCC1CCCO1 (centres unmarked), the “hERG current change (%, negative = inhibition) at 10uM” value was 13.6%.
In the case of COCCCNC1=C(Cl)C(=O)c2ccccc2C1=O, the “hERG current change (%, negative = inhibition) at 10uM” value is reported as -7.92%.
With Cc1ccc(N2CCN(c3ccc(C)cc3)C(CC(=O)O)C2=O)cc1 (centres unmarked) the “hERG current change (%, negative = inhibition) at 10uM” value was 10.7%.
O=C(NC(NC(=S)Nc1ccc(Cl)cc1Cl)C(Cl)(Cl)Cl)c1cccc([N+](=O)[O-])c1 (centres unmarked) was tested, and the “hERG current change (%, negative = inhibition) at 10uM” value was 4.13%.
